In publication PMC4336329 (PLoS ONE, 2015):
Among all 310,000 compounds or so, about 14,000 (4.5%) showed an effect of 50% or more. Effects have a minus sign here. Some of the results follow.

biological target: human ether-à-go-go-related gene (hERG) potassium channel (human, UniProt Q12809); test: primary screen, population patch clamp on CHO cells stably expressing hERG
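Further: peak tail current of the secondary pulse compared with the same well before compound.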

Chain of human ether-à-go-go-related gene (hERG) potassium channel (Q12809 whole entry, looked up): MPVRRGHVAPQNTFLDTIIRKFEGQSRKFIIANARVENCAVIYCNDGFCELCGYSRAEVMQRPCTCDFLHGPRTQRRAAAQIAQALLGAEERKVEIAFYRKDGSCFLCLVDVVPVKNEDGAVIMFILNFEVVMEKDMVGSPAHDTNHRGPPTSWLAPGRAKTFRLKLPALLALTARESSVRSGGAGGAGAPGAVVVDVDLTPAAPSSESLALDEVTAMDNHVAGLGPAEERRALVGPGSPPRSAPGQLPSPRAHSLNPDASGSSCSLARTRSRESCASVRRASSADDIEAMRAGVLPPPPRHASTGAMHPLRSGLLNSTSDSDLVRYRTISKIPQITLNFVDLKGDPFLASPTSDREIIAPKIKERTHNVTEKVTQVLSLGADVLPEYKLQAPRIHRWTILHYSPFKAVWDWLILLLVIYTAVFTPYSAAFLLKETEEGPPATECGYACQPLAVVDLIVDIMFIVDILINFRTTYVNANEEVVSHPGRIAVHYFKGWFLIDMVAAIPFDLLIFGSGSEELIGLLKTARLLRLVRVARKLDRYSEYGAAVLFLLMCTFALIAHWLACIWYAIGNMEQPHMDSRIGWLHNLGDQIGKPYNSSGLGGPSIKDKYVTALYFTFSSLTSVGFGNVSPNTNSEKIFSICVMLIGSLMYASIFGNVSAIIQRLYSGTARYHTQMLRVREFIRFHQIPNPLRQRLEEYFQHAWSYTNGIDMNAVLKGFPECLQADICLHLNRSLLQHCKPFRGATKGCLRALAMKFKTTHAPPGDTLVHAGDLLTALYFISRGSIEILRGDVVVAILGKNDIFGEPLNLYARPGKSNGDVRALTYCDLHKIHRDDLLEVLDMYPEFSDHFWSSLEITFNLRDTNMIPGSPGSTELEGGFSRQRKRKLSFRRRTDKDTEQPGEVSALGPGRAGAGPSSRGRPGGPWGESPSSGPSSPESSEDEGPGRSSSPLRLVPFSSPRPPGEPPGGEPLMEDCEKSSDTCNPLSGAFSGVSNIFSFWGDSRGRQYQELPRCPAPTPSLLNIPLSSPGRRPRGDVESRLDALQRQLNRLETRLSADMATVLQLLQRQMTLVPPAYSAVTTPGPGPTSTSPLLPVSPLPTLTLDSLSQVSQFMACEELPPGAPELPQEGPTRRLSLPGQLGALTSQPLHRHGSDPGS

Structure (SMILES) | hERG current change (%, negative = inhibition) at 10uM
CCOC(=O)c1nc2ccccc2nc1C | -9.85%
Cn1c(=O)n(C)c2cc(/C=C(/C#N)C(=O)NCc3ccco3)ccc21 | -12%
Cc1cc(C(=O)CCl)c(C)n1-c1c(C)n(C)n(-c2ccccc2)c1=O | 8.16%
Cc1oc2c(CN3CCCC3)c(O)ccc2c(=O)c1Oc1ccccc1Br | 8.7%
Cc1cc(C)n2c(Br)c(CN3CCCC(C)C3)nc2n1 (stereo not shown) | 28.6%
CC(=O)Nc1nc2ccccc2[nH]1 | -0.326%
O=[N+]([O-])c1ccc2nc(NS(=O)(=O)c3ccccc3[N+](=O)[O-])sc2c1 | 15.7%
CC1(C)CC(NC(=O)C(Cl)(Cl)Cl)CC(C)(C)N1 | -3.76%
CC1CCN(C(=O)CSc2nnc(Cc3cccn3C)n2-c2ccc(F)cc2)CC1 | -9.06%
CN(Cc1ccccn1)C(=O)C1CCC(=O)N(CCc2ccc(Cl)cc2)C1 (stereo not shown) | -53.1%
Clc1cccc(CN2CCSCC2)c1 | 13.7%
CN(C)CCn1c(SCc2ccccc2C#N)nc2c(sc3ccccc32)c1=O.Cl | -28%
COc1ccc(C2/C=C\CN(C(=O)C3CCCCC3)CC(=O)N2Cc2ccc(F)cc2)cc1 (stereo not shown) | -10.1%
CCOC(=O)N/N=C(\C)c1ccc(-n2cnnn2)cc1 | 17.2%
COC(=O)CNc1c(-c2ccccn2)nc2ccc(Br)cn12 | -7.34%
C=CCC1(CC=C)CCCN1C(=O)C1CCC(=O)N(CCc2ccc(Cl)cc2)C1 (stereo not shown) | -60%
CNC(=O)CSc1nc2ccccc2c(=O)n1CCc1ccccc1 | 19.9%
COc1ccccc1NC(=S)N1CCN(C(=O)C2CCCO2)CC1 (stereo not shown) | 11.9%
COc1cc(Cl)ccc1OCc1cc(C(=O)NCCCN2CCCC2=O)no1 | -18.9%
COc1ccc(N(C(=O)CNC(=O)c2cccs2)C(C(=O)NCC2CCCO2)c2ccccc2)cc1OC (stereo not shown) | 4.94%
Cc1ccc(S(=O)(=O)NCc2ccccc2)cc1C(=O)NCC(C)(C)N1CCOCC1 | -19.6%
CC1CN(C(=O)Nc2cccc(C(F)(F)F)c2)CC(C)O1 (stereo not shown) | 8.82%
CCOC(=O)NC(NS(=O)(=O)c1ccccc1)(C(=O)OCC)C(F)(F)F (stereo not shown) | -1.93%
CCCn1c(N)c(NCCN2CCOCC2)c(=O)n(CC(=O)NCc2ccccc2)c1=O | 24.6%
COc1ccc(OC)c(N=C2C(=O)Nc3ccccc32)c1 | 0.392%
